Source: the supplement of paper PMC10126150
Values marked as one replicate rest on one cluster of the flow cell; about a third of the high ones do not repeat.

Test system: ATP
Assay: switch fluorescence ratio, 500 uM ATP over buffer (Cy3 cluster intensity, sum of 5 cycles each) (fold (ratio)); higher = stronger signal-on switching upon ATP binding; sequences stand for … in TCGTCGGCAGCGTCAGATGTGTATAAGAGACAGTTTTTTTTTTTTTTTTTTTTTTTTT…TC
Details: aptamer strand: ATP DNA aptamer (quencher-CACCTGGGGGAGTATTGCGGAGGAAGG + anchor), 100 nM annealed; ATP concentration: 500 uM; one replicate
Outline: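 Per cluster, summed Cy3 intensity from the target cycles was divided by that from the buffer cycles to give the fluorescence ratio, then averaged per switch-domain sequence. Clusters outside 100-1000 RFU were excluded. The Cy3-labelled switching-strand clusters, on a modified Illumina MiSeq flow-cell, were annealed to 100 nM quencher-labelled ATP aptamer and imaged in selection buffer, then after 15 min with 500 uM ATP at 22 °C, for five cycles with NaOH stripping and re-annealing between them.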
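Note: ATP exposure 15 min at 22 °C before imaging.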

Row | Sequence | switch fluorescence ratio
1 | ACGATGGGGG | 1.07
2 | GTCTTTCAGG | 0.98
3 | GATAGAGTTC | 0.94
4 | TTCCCGGGT | 1.01
5 | TAGCGTCCGG | 0.998
6 | TCACATTGCG | 1.03
7 | TTCTTTGTCG | 0.901
8 | TAGCAAATTC | 1.88
9 | AAGAAAAAGA | 0.977
10 | AGGGTCGTG | 1.02
11 | AGACGTGCGG | 0.972
12 | TCGGATTCGT | 1
13 | ATGTGATGGT | 0.995
14 | AGTAATGATC | 0.989
15 | AAAAAAGTCG | 1
16 | CGGGTTGAGT | 0.989
17 | CGTAAGGCAC | 1.04
18 | TGTCTACCTT | 1.04
19 | ATGTCCTTCA | 1.21
20 | AAGAGGTACG | 1.02
21 | AGATCGTGCA | 0.955
22 | AGGAGAGGCG | 1.01
23 | TAATATTATG | 1.03
24 | CTGTCATTAG | 1.05
25 | AGTTCAGGC | 0.969
26 | CTTATTGGTT | 1.04

Row | Sequence | switch fluorescence ratio
27 | TACGTGGCGT | 1.02
28 | TTTAAGTTAG | 0.977
29 | ACCAGGCTAT | 1.05
30 | ATTGTGGTTC | 0.974
31 | TAGACAGTAA | 1.1
32 | ATTGTATGCC | 0.917
33 | AACGGCTCAA | 0.996
34 | GCGCAATCGT | 1.75
35 | CATAAATGTG | 0.984
36 | TTGTTTACGG | 0.991
37 | TTTACTCTCG | 1.03
38 | AAAGTCTTTG | 1.04
39 | CTCATACTTG | 0.991
40 | AGAGGGGATA | 0.968
41 | CACTAGCTAC | 2.7
42 | TTCAAAGTCC | 1.03
43 | GACTGGAGAG | 0.986
44 | TAAACACATA | 1.06
45 | AGAGATCACC | 1.02
46 | TATGGTCACT | 0.99
47 | CCATCTTTTT | 0.948
48 | ACATCTAATA | 1.05
49 | GGTTTAGGAT | 1.01
50 | ACAGGACCCA | 1.11
51 | CCATTGCCCT | 1.02
52 | GAGTAATCTG | 1.02

Row | Sequence | switch fluorescence ratio
53 | TTTAATGACG | 1.06
54 | GCAACGTCGT | 1.01
55 | TAGGACTCT | 0.992
56 | CCAACTGT | 0.933
57 | TGTAGGTCTC | 1.06
58 | ACTGTTCATC | 0.999
59 | AAAGGGAGGC | 1.01
60 | ATGTAAATAG | 1.04
61 | GGGGAACTGA | 1.01
62 | ATCACATGTG | 1.02
63 | GGGGTGCGAC | 1.01
64 | ATGTTTCTCG | 1.03
65 | TAAATGAGTA | 0.972
66 | CCATCGGAGG | 0.988
67 | ACCGATCTTG | 0.972
68 | TGATTGCCAG | 1.03
69 | TCAGGTGTGC | 1.29
70 | GAATTTCCTC | 1.25
71 | TTATTGGGAA | 2.04
72 | TGGATGGTGA | 0.957
73 | CGCGGAGGAC | 1.15
74 | TTTCAGTTAC | 1.05
75 | AGCCAATGTC | 1.15
76 | AGGAAGATT | 1
77 | GATGGGGCCG | 0.997
78 | AAAAAAGT | 0.956

Row | Sequence | switch fluorescence ratio
79 | ATCGAGAGT | 1.04
80 | CTCTACTTTG | 0.974
81 | GTTACTCAGT | 1.06
82 | ATGCGGAGGG | 1.01
83 | GTGGGCGAAA | 1.05
84 | GCCGCATTAG | 4.56
85 | AGCTTAGTCG | 0.958
86 | ATATGGGCGC | 1.03
87 | GAAATCACCC | 1.06
88 | ATTGGCTCGG | 0.973
89 | AGTTGAGG | 0.984
90 | TGATCGGTA | 0.962
91 | TTCGGACATA | 1.01
92 | GGATTTTCTG | 1.01
93 | AAACGTCATT | 1.09
94 | GAAAATATTA | 0.999
95 | GCTAGTTTTG | 1.01
96 | TGCTTCTGGA | 1.01
97 | GATATTGTGC | 1
98 | GCGTCGACAG | 0.977
99 | TTAGAAGCAG | 0.971
100 | CCAGCTATGA | 1.21
101 | CGGATAGCTT | 1.02
102 | ACAAGAGAAC | 1.05
103 | CGTCATCAAA | 1.04
104 | GCCGGCCCAG | 1.01

Row | Sequence | switch fluorescence ratio
105 | GGTGTATGAT | 0.988
106 | GTGCGCTGTA | 1.01
107 | GACGGTGC | 1.91
108 | CGGATACATA | 1.05
109 | AGTTCGCATG | 1.06
110 | ATTCTGCGAG | 1.01
111 | TCAGATGTG | 0.974
112 | CAGAACCGTT | 1.04
113 | GGAATCATCT | 0.959
114 | AGGTCTAAAT | 0.973
115 | TATACGTCGA | 1.05
116 | TAGGCAAAAA | 0.97
117 | TTGTTGGTG | 0.969
118 | GGTAGAGGAC | 1.06
119 | ACTTTATTAT | 1
120 | CGGTGGCGAG | 0.988
121 | CAATGAATTT | 0.95
122 | TCAAGTTAAT | 1.08
123 | AACTAAGTCT | 0.948
124 | CATTTATCTG | 0.989
125 | CGATTTAACA | 0.942
126 | GTGACAAGAA | 1.01
127 | GATTCATTAC | 1.27
128 | CGAGCCATGA | 1.02
129 | TTAGTAAGT | 1.01
130 | TTTCGTGAGG | 1.03

Row | Sequence | switch fluorescence ratio
131 | TACCGGCGAC | 1.1
132 | CCCTTGGGAC | 0.975
133 | GAGGTGGTCA | 1.05
134 | TCGGTGCGTA | 1.04
135 | ACACGCCCGC | 1.19
136 | TAAGCCGCAC | 1.62
137 | GGCCTCCGAA | 2.17
138 | CGAGTCATCA | 1.01
139 | TTAGTGGTGA | 0.991
140 | TAGAAAGATC | 0.973
141 | TAGTGGTGGT | 0.961
142 | TTGGTGGATA | 0.997
143 | GGTTGATTCG | 1.02
144 | GGGGATAAAT | 0.999
145 | ATTATGTTAC | 1.03
146 | TTTGGGCGAC | 1.01
147 | AATCTTGCCA | 0.996
148 | ATCACTGGAT | 1.06
149 | AGTCTTCGCC | 0.942
150 | CATGGCACTG | 0.994
151 | CGCGTATCA | 1.07
152 | TGGAATCCTG | 0.978
153 | ACTTTACCTC | 1.5
154 | ATCCCCGGG | 1.54
155 | GTAAAATTAG | 0.989
156 | CAGGTACGGC | 0.989

Row | Sequence | switch fluorescence ratio
157 | TCTTAGTCAT | 0.999
158 | AGCATAGCGT | 1.03
159 | CCTCGTCTGC | 1.49
160 | TTTCAAAGGT | 0.997
161 | AAGGCGCAGG | 1.1
162 | ACTAAGCGGA | 1.07
163 | TACACGCCGC | 1.25
164 | ACCATAGGGC | 1.01
165 | GATGATGTGC | 0.97
166 | CGTAGTCCAG | 1
167 | TACGATCTGT | 0.971
168 | GGCACTTTAG | 0.965
169 | AAATTGGTAG | 0.986
170 | ATTACTGCTT | 0.963
171 | GCATAGGGGC | 1.05
172 | TTACACGGAC | 1.57
173 | AGCCGTTGTT | 0.971
174 | ACGGAGAAGT | 1.1
175 | ATTGTGTTGG | 1.02
176 | ACTAGATTGC | 0.975
177 | AGAGGTGGTG | 0.931
178 | TATGGGTCGC | 0.973
179 | ATCGTATGCT | 1.03
180 | TTCACGTATT | 1.2
181 | TAAGCATGTG | 1.03
182 | GTGGGGGCTC | 1.01

Row | Sequence | switch fluorescence ratio
183 | TACAAATGGA | 1.01
184 | GGTGTTTTAC | 1
185 | GATGCCTGTG | 0.987
186 | GCGGTCTGAC | 1.1
187 | AAAGACATTT | 1.03
188 | CATGCTGCCT | 0.984
189 | AGCTTTTTCG | 1.01
190 | GGAGTGAAAT | 1.84
191 | GTGGCATTGG | 1.02
192 | ATTTAACTCT | 1.03
193 | GTTATTCGGG | 0.972
194 | CAGTCTGCCT | 0.999
195 | ATCCCTGTTC | 0.968
196 | CAAAGATTGG | 0.978
197 | CAAGTATGCA | 1.01
198 | GCGATCCCGT | 1.04
199 | ACGTTAGTTC | 1.01
200 | TGACAGTTAG | 1.29
201 | TCTTGTTTT | 1.01
